Source: paper PMC2670439 (Cell, 2009)

Biological target: the molecule itself
Assay: SEC-MALS

B1: CAD-His6 (domain or fragment)
chain: not shown
  stoichiometry N: 4
